The subject of this test is Kir3.1 and Kir3.2 G-protein coupled inward rectifying potassium channels. In words: Electrophysiology GIRK assay, basal activity without agonist application. Type of test: cell-based. The settings on record: FIG. 21C; in comparison to GFP-only transfection, p=0.008. The source says: FIG. 21. Electrophysiology-based screen of hM4D (Gi) activation.

B1: Y113C+A203G+S85V+Y416F+V120I: modified human M4 muscarinic receptor (GRANPA) with these substitutions (protein)
chain: MANFTPVNGSSGNQSVRLVTSSSHNRYETVEMVFIATVTGSLSLVTVVGNILVMLSIKVNRQLQTVNNYFLFSLACADLIIGAFVMNLYTVYIIKGYWPLGAVVCDLWLALDCVVSNASIMNLLIISFDRYFCVTKPLTYPARRTTKMAGLMIAAAWVLSFVLWAPAILFWQFVVGKRTVPDNQCFIQFLSNPAVTFGTAIAGFYLPVVIMTVLYIHISLASRSRVHKHRPEGPKEKKAKTLAFLKSPLMKQSVKKPPPGEAAREELRNGKLEEAPPPALPPPPRPVADKDTSNESSSGSATQNTKERPATELSTTEATTPAMPAPPLQPRALNPASRWSKIQIVTKQTGNECVTAIEIVPATPAGMRPAANVARKFASIARNQVRKKRQMAARERKVTRTIFAILLAFILTWTPFNVMVLVNTFCQSCIPDTVWSIGYWLCYVNSTINPACYALCNATFKKTFRHLLLCQYRNIGTAR
In the case of B1, the “basal activity without agonist application” value is “significant basal activity”.

Source of the values: patent US20250032643A1, “SYNTHETIC RECEPTORS” (UCL BUSINESS LTD, priority 2021, published 2025).
